Experimental data published in publication PMC7819943, “Rice protein-binding microarrays: a tool to detect cis-acting elements near promoter regions in rice”.
The other results are listed elsewhere or left out.

Target: T1, OsWOX13 (Oryza sativa, UniProt Q5QMM3 1-267)
T1 sequence: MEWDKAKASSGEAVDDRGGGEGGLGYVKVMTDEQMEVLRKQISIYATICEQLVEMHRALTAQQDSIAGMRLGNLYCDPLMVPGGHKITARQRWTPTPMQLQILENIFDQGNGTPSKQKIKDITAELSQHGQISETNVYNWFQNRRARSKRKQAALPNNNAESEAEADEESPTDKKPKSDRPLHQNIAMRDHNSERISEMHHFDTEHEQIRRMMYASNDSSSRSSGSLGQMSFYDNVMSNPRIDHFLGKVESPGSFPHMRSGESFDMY
Test: protein-binding microarray (RPBM); PBS, 2% BSA, 51.3 ng/ul salmon testes DNA, 50 uM zinc acetate, 200 nM TF, 25 C, 1 h; high values mean tight binding
Details: protein: recombinant; tags: N-terminal polyhistidine and DsRed monomer fusion (pET32a); label: CyDye5-dUTP incorporated in the synthesized complementary strand; 3' TTTTT single-stranded linker to array surface; dsDNA, one strand shown
Method in brief: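 Using Ni–NTA, transcription factors fused N-terminally to polyhistidine and DsRed were purified after expression in E. coli BL21-CodonPlus. These were incubated at 200 nM with a blocked, double-stranded custom Agilent array for 1 h at 25 °C in a buffer containing 50 µM zinc acetate, and the array was washed. The binding signal is per-feature fluorescence intensity (arbitrary units) on an Axon 4000B scanner.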

Q: How did the binding signal turn out when “ACGCGTGATTAATGGTTAACAGATTAAGGTCAAGCGAAATCGGAGTCACCTAGTGCAG” was run?
A: 44700 fluorescence intensity (a.u.)

Q: Which binding signal does the source give for “ATGAAAGGAGTTGATTTGCACCGGTTTTCAAAGATGAAAACGGAGTCACCTAGTGCAG” here?
A: 3470 fluorescence intensity (a.u.)

Q: How did the binding signal turn out when “TTAACAATATTTTAATGATTGCTCTTGTGCTTAGAAAATTCGGAGTCACCTAGTGCAG” was run?
A: 5300 fluorescence intensity (a.u.)

Q: For “ATTCGACCACTAATTAAGGGAGTCAATGTGAACTTATTCCCGGAGTCACCTAGTGCAG”, which binding signal is on record?
A: 3290 fluorescence intensity (a.u.)

Q: Which binding signal does the source give for “AAATATCAATCTCCGTCCACAAATATAAGAAAACCCTGACCGGAGTCACCTAGTGCAG” here?
A: 4160 fluorescence intensity (a.u.)

Q: “TCTTACCAAGTCAATCGCCAATCACGGCTGTCCATACGGACGGAGTCACCTAGTGCAG” was tested. Which binding signal did it give?
A: 11900 fluorescence intensity (a.u.)

Q: Which binding signal does the source give for “ATTTCGGCAAAATTGAAACCGATTGATCTCATTATTTCCTCGGAGTCACCTAGTGCAG” here?
A: 3810 fluorescence intensity (a.u.)

Q: “ATAATTTGGTCCCATCATAATTAATGTGGTAATTTATATGCGGAGTCACCTAGTGCAG” was tested. Which binding signal did it give?
A: 17800 fluorescence intensity (a.u.)

Q: Which binding signal does the source give for “TTTCTCTCCAAATTAATTTTGTGACTGTCTTATGATAGAGCGGAGTCACCTAGTGCAG” here?
A: 22800 fluorescence intensity (a.u.)

Q: Which binding signal does the source give for “CTGCTCCATGACAACTGATCAATTAAGGAAGACTATACAACGGAGTCACCTAGTGCAG” here?
A: 5710 fluorescence intensity (a.u.)

Q: How did the binding signal turn out when “AATTATTTGTTTGTAATTATTGTAGTTTGTGTGGGTACAACGGAGTCACCTAGTGCAG” was run?
A: 7520 fluorescence intensity (a.u.)

Q: For “TCAAATTTTAATAAATATATAGGAAATCCTGTCAAAATTTCGGAGTCACCTAGTGCAG”, which binding signal is on record?
A: 5180 fluorescence intensity (a.u.)

Q: How did the binding signal turn out when “CAGACTTAACAATAATTTTATCATAGAACTATAGATTAAGCGGAGTCACCTAGTGCAG” was run?
A: 6950 fluorescence intensity (a.u.)

Q: For “TTAACTAAGGGTAAATTGGAACCATGCTATTATAATTTTGCGGAGTCACCTAGTGCAG”, which binding signal is on record?
A: 11700 fluorescence intensity (a.u.)

Q: For “CGTACCAAACTTAATTAGGGCTCGAGCTAATTAACTAACTCGGAGTCACCTAGTGCAG”, which binding signal is on record?
A: 6670 fluorescence intensity (a.u.)

Q: Which binding signal does the source give for “TCTAAATCATAACTTAATAGCCAATTCATACAATAGTTATCGGAGTCACCTAGTGCAG” here?
A: 10200 fluorescence intensity (a.u.)

Q: For “ATATATATATATATATATATATATATATATATATCTCCTACGGAGTCACCTAGTGCAG”, which binding signal is on record?
A: 13500 fluorescence intensity (a.u.)

Q: Which binding signal does the source give for “TATTAAGTCTAATTATTCCGTCATTAGCACATATAGGTTACGGAGTCACCTAGTGCAG” here?
A: 6060 fluorescence intensity (a.u.)

Q: How did the binding signal turn out when “CATATGATGCCTCTGATTGTTCCTTGGCAGGCTATTCCCACGGAGTCACCTAGTGCAG” was run?
A: 3220 fluorescence intensity (a.u.)

Q: “CTAATTTAGAACTGGATGTGACACATTCTATTACTATCCCCGGAGTCACCTAGTGCAG” was tested. Which binding signal did it give?
A: 4040 fluorescence intensity (a.u.)

Q: With “AGCTAATTTCTCGCCTCTCCGACCAATTTGTAATCGATGGCGGAGTCACCTAGTGCAG” as the sequence, how does the binding signal read?
A: 9680 fluorescence intensity (a.u.)

Q: With “ATCATCATTGTGACAGATAATCATAGAAGAGAGAGAAACACGGAGTCACCTAGTGCAG” as the sequence, how does the binding signal read?
A: 8540 fluorescence intensity (a.u.)

Q: With “CACTTCCTAATTGATTAAGCCAAGCTCAGAGTGATTCGACCGGAGTCACCTAGTGCAG” as the sequence, how does the binding signal read?
A: 49900 fluorescence intensity (a.u.)

Q: For “CCACATAAATTAACAAAATTAAAGTCAGTAATAATACCTTCGGAGTCACCTAGTGCAG”, which binding signal is on record?
A: 21000 fluorescence intensity (a.u.)

Q: How did the binding signal turn out when “CACAAACTTCAATGCAATGATTACTCCAAAATTAACTTATCGGAGTCACCTAGTGCAG” was run?
A: 3190 fluorescence intensity (a.u.)

Q: How did the binding signal turn out when “ATATATATATATATATATATATATATATATATTGGCAATTCGGAGTCACCTAGTGCAG” was run?
A: 18200 fluorescence intensity (a.u.)

Q: For “TTGGATTGAAGCCAAAATAGCCTAAGTTTACTATTGAAATCGGAGTCACCTAGTGCAG”, which binding signal is on record?
A: 7310 fluorescence intensity (a.u.)

Q: How did the binding signal turn out when “CCAAATTACGGCAAATCATGGAACGGTAGAATCGCGACATCGGAGTCACCTAGTGCAG” was run?
A: 28500 fluorescence intensity (a.u.)

Q: For “GTTGATTGGGTAAATCATATGATCGTAATGTATTGTGAATCGGAGTCACCTAGTGCAG”, which binding signal is on record?
A: 64600 fluorescence intensity (a.u.)

Q: For “TCAAGACATGATTTTCTTCTCTTTCCTCGTTTATTTACTTCGGAGTCACCTAGTGCAG”, which binding signal is on record?
A: 3730 fluorescence intensity (a.u.)

Q: For “TAAAACAAATTATATATTCCACATGTAAATTGCGAGACGACGGAGTCACCTAGTGCAG”, which binding signal is on record?
A: 8550 fluorescence intensity (a.u.)

Q: For “GCAGCCTTAATTAGCATTTCTAGAAAATTCTACTTCTTCCCGGAGTCACCTAGTGCAG”, which binding signal is on record?
A: 10100 fluorescence intensity (a.u.)

Q: “GGATACTTGGATGATTGGGCCTGGGAAAGTAAGCCTACTACGGAGTCACCTAGTGCAG” was tested. Which binding signal did it give?
A: 4980 fluorescence intensity (a.u.)

Q: How did the binding signal turn out when “TTGAGATTGTAATTTGCGAACGATCTCGGTTGTGCTGAGACGGAGTCACCTAGTGCAG” was run?
A: 14200 fluorescence intensity (a.u.)

Q: For “ACCATTTTGTGATTTGTTGCTGCAAGCCTCATTATCGTTCCGGAGTCACCTAGTGCAG”, which binding signal is on record?
A: 7330 fluorescence intensity (a.u.)

Q: For “AATCGTGAATGGTCAAATTTGTTTGTTATACTTTGTTTTGCGGAGTCACCTAGTGCAG”, which binding signal is on record?
A: 4700 fluorescence intensity (a.u.)

Q: Which binding signal does the source give for “TGGGGATGGGGAATTGACCTGGGTAGGGGTGGTAATTGGGCGGAGTCACCTAGTGCAG” here?
A: 10100 fluorescence intensity (a.u.)

Q: With “TTAAAATTATTTTATAATTAATATTTATTATTATTATTAGCGGAGTCACCTAGTGCAG” as the sequence, how does the binding signal read?
A: 12400 fluorescence intensity (a.u.)

Q: With “ATGTAATTTGTTTTCTTATTAGATTACGTTTAATATTTTACGGAGTCACCTAGTGCAG” as the sequence, how does the binding signal read?
A: 10500 fluorescence intensity (a.u.)

Q: Which binding signal does the source give for “ATATATGATATGGATGATTTCAATTTCGTAAGACTGTTTTCGGAGTCACCTAGTGCAG” here?
A: 4390 fluorescence intensity (a.u.)

Q: For “TATAATTAATTTTATTTAATACTCAATACATATATTAAAGCGGAGTCACCTAGTGCAG”, which binding signal is on record?
A: 40500 fluorescence intensity (a.u.)

Q: How did the binding signal turn out when “TTGATTGACTAAACTGTCACGTCAGCGTCATATTGACGAACGGAGTCACCTAGTGCAG” was run?
A: 54900 fluorescence intensity (a.u.)
